The record followed here is ChEMBL document CHEMBL4888484, “Replenishing the malaria drug discovery pipeline: Screening and hit evaluation of the MMV Hit Generation Library 1 (HGL1) against asexual blood stage Plasmodium falciparum ,using a nano luciferase reporter read-out” (2022).

Screen size: about 150,000 compounds; about 540 (0.36%) showed an effect of 50% or more. The list shows a part of the results.

For the test, the system named is Plasmodium falciparum. The test is described as follows: Primary screen in NF54 nanoGlo assay, in single point, at 2uM, 72h; a lower Z score goes with more inhibition. Type of test: functional, Erythrocyte. The following applies: timepoint 72 hour.
The term % Inhibition denotes the relative decrease from the control value, in per cent. Consider `CCOC(=O)c1cnc2c(Cl)c(Cl)ccc2c1N(C)Cc1ccccc1`, for which the “% Inhibition” value is on record as -5% and the Z score came to 0.74.

With `COc1ccccc1[C@H](Nn1cnnc1)c1cccc(F)c1O`, the “% Inhibition” value is reported as 1% and the Z score is reported as -0.08.

Consider `CC(C)(C)OC(=O)NCCc1ccc2c(c1)CCCN2`, for which the “% Inhibition” value is on record as -8% and the Z score came to 1.18.

Turning to `CCOc1ccc(C(=O)N(Cc2ccc(N(C)C)cc2)[C@H]2CCS(=O)(=O)C2)cc1`, the “% Inhibition” value is given as 2% and the Z score is listed as -0.45.

For the compound `CC(C)N1CCC(NC(=O)Nc2ccc3c(c2)OCO3)CC1`, the “% Inhibition” value is -4% and the Z score is 0.78.

`COC(=O)NC[C@@H]1C[C@H](F)CN1C(=O)Cc1ccncc1`: the “% Inhibition” value was -16% and the Z score is 1.87.

Turning to `O=C1NCCCCCCN(C(=O)COc2ccccc2)[C@H]2CCC[C@@H]12`, the “% Inhibition” value came out at 4% and the Z score is on record as -0.55.

With `COc1cc(OC)c(NCc2csnn2)cc1Br`, the “% Inhibition” value is recorded as -7% and the Z score stood at 0.87.

As for `CC(C)OCCCNC(=O)c1cnn[nH]1`, the “% Inhibition” value stood at 8% and the Z score is -1.22.

Take `C[C@@H]1CN(C(=O)NCCc2noc(C3CCC3)n2)C[C@H](C)O1`: the “% Inhibition” value was -5% and the Z score amounted to 0.74.

With `CCCNC(=O)N(CCN1CCOCC1)CC(=O)N1N=C(c2ccc(C)c(C)c2)C[C@H]1c1ccc2c(c1)OCO2`, the “% Inhibition” value is given as -27% and the Z score turned out to be 2.64.

With `CCOc1ncccc1C(=O)N[C@@H]1[C@@H]2CCO[C@@H]2[C@H]1N(C)C`, the “% Inhibition” value is given as -14% and the Z score came out at 1.31.

In the case of `COc1cc(NC(C)=O)ccc1NC1CCC(C)C1` (centres undefined), the “% Inhibition” value worked out at 7% and the Z score is -0.86.

Regarding `Cc1cc2c(cc1NC(=O)NC[C@H]1Cc3ccccc31)OCO2`, the “% Inhibition” value is given as -2% and the Z score is reported as 0.26.

As to `Cc1nc(CN(C)CCN(C)C2CCCC2)n(C)c1C`, the “% Inhibition” value is -5% and the Z score is listed as 0.88.

As to `COc1ccc(C(=O)N2CCc3n[nH]cc3C2)cc1OC1CCN(C(C)C)CC1`, the “% Inhibition” value is -10% and the Z score was found to be 1.26.

As to `CC(C)CN1CC2(CCN(C(=O)C[C@H](C)n3ccnc3)CC2)CC1=O`, the “% Inhibition” value is -8% and the Z score is listed as 1.16.

As to `Cc1c(C(=O)NC2CCCCCCC2)sc2ncnc(N(C)C3CCCCC3)c12`, the “% Inhibition” value is -24% and the Z score is 2.17.

Regarding `Cc1cc(C(=O)N2CCc3sccc3[C@@H]2C)no1`, the “% Inhibition” value is 3% and the Z score is -0.35.

As to `Cc1nnc(N2CC(c3nc(-c4ccccc4)no3)C2)nc1C`, the “% Inhibition” value is recorded as -18% and the Z score is listed as 3.4.

On to `Cc1ccc(C)c(C(=O)N[C@@H]2COCC[C@@H]2OCc2ccccc2)c1`, for which the “% Inhibition” value is reported as -5% and the Z score was found to be 0.79.

Take `CC(C)[C@@H]1CN(c2nnc(Cc3cn4ccccc4n3)n2C)CCO1`: the “% Inhibition” value is reported as -2% and the Z score turned out to be 0.26.

Consider `CC(C)N(CC(=O)Nc1nc(-c2ccccc2)cn1-c1ccc(C(F)(F)F)cc1)C(=O)c1ccccc1F`, for which the “% Inhibition” value worked out at 29% and the Z score was -3.3.

For `CCn1nc(C)c(C(=O)N2CCC[C@H](c3nccn3CC3CC3)C2)c1C`, the “% Inhibition” value is given as -17% and the Z score is 1.61.

As for `Cc1nc(Cn2cccc(C(F)(F)F)c2=O)n(C)n1`, the “% Inhibition” value was -11% and the Z score turned out to be 2.05.

As to `COc1ccc(NS(=O)(=O)c2cc(NCc3ccco3)cc(C(=O)NCCN(C)C)c2)cc1`, the “% Inhibition” value came to 4% and the Z score is given as -0.48.

Regarding `CCc1ccccc1NC(=O)CN(C)Cc1ncccc1Cl`, the “% Inhibition” value was -4% and the Z score is reported as 0.64.

As for `Cc1n[nH]c(C)c1-c1cnc2c(C#N)cnn2c1`, the “% Inhibition” value is given as -2% and the Z score stood at 0.39.

With `CCN(CC)C(N)=NCC1(N2CCOCC2)CCCCC1`, the “% Inhibition” value came to 5% and the Z score is on record as -0.63.

On to `COc1cc2cc(c1)C(=O)NCCCC(=O)N[C@H]1CN(C(=O)c3[nH]c4c(C)cc(C)cc4c3C)CC[C@@H]1OCc1cccc(c1)O2`, for which the “% Inhibition” value is 6% and the Z score is on record as -0.86.

Take `CC(C)CCc1nc(N2CCCN(C(=O)c3ccccc3Cl)CC2)c2cnn(-c3cccc(Cl)c3)c2n1`: the “% Inhibition” value is reported as 0% and the Z score turned out to be 0.03.

With `C[C@H]1CCCCN1CC(=O)NCCc1c[nH]c2ccccc12`, the “% Inhibition” value is on record as -5% and the Z score is recorded as 0.53.

As to `O=C(c1ccc(F)cc1F)N1CCCN(C(=O)C2(O)CCC2)CC1`, the “% Inhibition” value is recorded as -8% and the Z score was 1.12.

On to `O[C@H]1CCN(Cc2csc3ccccc23)C1`, for which the “% Inhibition” value is on record as -5% and the Z score is reported as 0.66.

Take `CC(C)n1cnnc1C[C@H]1CCN(C(=O)Nc2ccc3c(c2)OCCO3)C1`: the “% Inhibition” value was 0% and the Z score is listed as -0.02.

As to `CC(C)NC(=O)c1cc(C(C)(C)C)n[nH]1`, the “% Inhibition” value is -2% and the Z score is 0.38.

As to `Cc1nc(NC[C@H](O)CN(C)C)ccc1Cl`, the “% Inhibition” value is -2% and the Z score is recorded as 0.42.

Take `Cc1nc(CNC(=O)c2ccn(C(C)C)c2C)ccc1[C@H](C)O`: the “% Inhibition” value is 13% and the Z score is on record as -1.62.

Consider `O=C(NCC1(c2ccsc2)CCOCC1)c1ccc(Oc2ccccc2)cc1`, for which the “% Inhibition” value is recorded as 11% and the Z score is given as -1.72.

Consider `COc1ccccc1-c1oncc1C(=O)NCCOC[C@H]1CCOC1`, for which the “% Inhibition” value is -3% and the Z score worked out at 0.73.

Turning to `CCn1ccc(C(=O)N2CC(N(CC(C)C)C3CCN(C)CC3)C2)n1`, the “% Inhibition” value is on record as -13% and the Z score is on record as 1.73.

As for `Cc1ccc(CN(C(=O)CCN(C)[C@H]2CCS(=O)(=O)C2)C2CCCC2)s1`, the “% Inhibition” value is given as -4% and the Z score was found to be 0.64.
